Results: the RNAGym collection of RNA variant scans (doi:10.7554/elife.90254)
The source gives no read counts; variants with many changes may rest on few reads.

B1: LINE1-full (parent)
chain: UACGUAGGUGGUUUUCCCCUGAUAGUGCUAAGGGGGCCUGGAAGUUUGGACUGGGCAGAGCUCAACACAGCGUGGCAAAGUGGCUGUGGCUAGACUGCCUCUCUGGAUUCCUCGUCACUCAGCAGGGCAUCUCUGAGAGAAAUGCC

Variants of: B1
Test: self-cleavage, relative activity (ratio to wild type); higher = more cleavage; in vitro, sequencing; the parent is a self-cleaving ribozyme

**Q.** With U47A A50U A67U A94U U143C as the variant, how does the self-cleavage read?
**A.** 0.06

**Q.** Which self-cleavage does the source give for U47A A50U U87A C123U here?
**A.** 0.05

**Q.** With U47A A57G G93A U104G U112C as the variant, how does the self-cleavage read?
**A.** 0.16

**Q.** Which self-cleavage does the source give for U47A A57G U73A U115A here?
**A.** 0.33

**Q.** For U47A A57G U134C, which self-cleavage is on record?
**A.** 0.78

**Q.** For U47A A57U A65G, which self-cleavage is on record?
**A.** 0

**Q.** With U47A A57U G97A A117C A124G as the variant, how does the self-cleavage read?
**A.** 0.03

**Q.** For U47A A59G C71U A129G, which self-cleavage is on record?
**A.** 0

**Q.** For U47A A59G U73C, which self-cleavage is on record?
**A.** 0

**Q.** For U47A A64C A121U A142U, which self-cleavage is on record?
**A.** 0.23

**Q.** Which self-cleavage does the source give for U47A A64U A94C A141G here?
**A.** 0.07

**Q.** With U47A A65C U109A as the variant, how does the self-cleavage read?
**A.** 0.05

**Q.** For U47A A65G A69G A124U U130C C145U, which self-cleavage is on record?
**A.** 0.18

**Q.** Which self-cleavage does the source give for U47A A65U U115C here?
**A.** 0.1

**Q.** For U47A A67G A94U, which self-cleavage is on record?
**A.** 0.02

**Q.** Which self-cleavage does the source give for U47A A67U G93U A107G A117G here?
**A.** 0

**Q.** For U47A A67U G105U A117C A140G, which self-cleavage is on record?
**A.** 0.33

**Q.** For U47A A69G A77U A79U, which self-cleavage is on record?
**A.** 0.47

**Q.** For U47A A77C A94G, which self-cleavage is on record?
**A.** 0

**Q.** For U47A A77G U87A U115A, which self-cleavage is on record?
**A.** 0.09

**Q.** With U47A A77G U130A A138G as the variant, how does the self-cleavage read?
**A.** 1.41

**Q.** Which self-cleavage does the source give for U47A A77U U87G here?
**A.** 0.14

**Q.** For U47A A78G U130C, which self-cleavage is on record?
**A.** 1.3

**Q.** For U47A A79G U81A U119C, which self-cleavage is on record?
**A.** 2.07

**Q.** Which self-cleavage does the source give for U47A A92G A107G here?
**A.** 0.07

**Q.** Which self-cleavage does the source give for U47A A92U A129U A142G here?
**A.** 0.66

**Q.** Which self-cleavage does the source give for U47A A117U U134A here?
**A.** 1.16

**Q.** Which self-cleavage does the source give for U47A A124G A141U here?
**A.** 0.75

**Q.** Which self-cleavage does the source give for U47A C51U A57G U96A G122U A124G A138G here?
**A.** 0.03

**Q.** Which self-cleavage does the source give for U47A C128U A136G here?
**A.** 1.74

**Q.** With U47A G53A A59G U134C as the variant, how does the self-cleavage read?
**A.** 0.11

**Q.** For U47A G74A A124G, which self-cleavage is on record?
**A.** 0.61

**Q.** Which self-cleavage does the source give for U47A G75A U108C here?
**A.** 1.46

**Q.** With U47A G75C U108C as the variant, how does the self-cleavage read?
**A.** 1.14

**Q.** For U47A G93A U132G, which self-cleavage is on record?
**A.** 0.03

**Q.** For U47A U52A G58U A92G, which self-cleavage is on record?
**A.** 0.05

**Q.** Which self-cleavage does the source give for U47A U52C A92G U108C here?
**A.** 0.42

**Q.** For U47A U52G A77U A92G, which self-cleavage is on record?
**A.** 0.08

**Q.** With U47A U62C A64U U115G as the variant, how does the self-cleavage read?
**A.** 0.25

**Q.** Which self-cleavage does the source give for U47A U62C U104C U119A here?
**A.** 0.03

**Q.** Which self-cleavage does the source give for U47A U81A U85A U96A U115C here?
**A.** 0.05

**Q.** Which self-cleavage does the source give for U47A U81C U96C here?
**A.** 0.05

**Q.** Which self-cleavage does the source give for U47A U81G U85C here?
**A.** 0.12

**Q.** With U47A U85C G93A as the variant, how does the self-cleavage read?
**A.** 0.11

**Q.** Which self-cleavage does the source give for U47A U87A A142G here?
**A.** 0.05

**Q.** Which self-cleavage does the source give for U47A U87C A129U here?
**A.** 0.21

**Q.** For U47A U87C A136G A140U, which self-cleavage is on record?
**A.** 0.07

**Q.** For U47A U87C C98U, which self-cleavage is on record?
**A.** 0.03

**Q.** For U47A U100C U134G, which self-cleavage is on record?
**A.** 2.38

**Q.** Which self-cleavage does the source give for U47A U100G A124U here?
**A.** 0.8

**Q.** For U47A U109C A124G U130A, which self-cleavage is on record?
**A.** 1.53

**Q.** With U47A U109C A140G as the variant, how does the self-cleavage read?
**A.** 0.46

**Q.** For U47A U112C U130C A138G, which self-cleavage is on record?
**A.** 1.86

**Q.** Which self-cleavage does the source give for U47A U112G A140G here?
**A.** 0.5

**Q.** For U47A U130C A140G, which self-cleavage is on record?
**A.** 2.09

**Q.** Which self-cleavage does the source give for U47A U132C A138U here?
**A.** 1.05

**Q.** Which self-cleavage does the source give for U47A U134G A138G here?
**A.** 1.54

**Q.** Which self-cleavage does the source give for U47C A50C A65U A141G here?
**A.** 0

**Q.** For U47C A50G A59G A121U A136U A138G, which self-cleavage is on record?
**A.** 0.71

**Q.** Which self-cleavage does the source give for U47C A50U G80C U112A here?
**A.** 0.23

**Q.** Which self-cleavage does the source give for U47C A57G U62C A141G here?
**A.** 0.38

**Q.** With U47C A57G U81A A140G as the variant, how does the self-cleavage read?
**A.** 2.55

**Q.** With U47C A57U G83A A107G as the variant, how does the self-cleavage read?
**A.** 0.04

**Q.** With U47C A57U U100A as the variant, how does the self-cleavage read?
**A.** 0

**Q.** Which self-cleavage does the source give for U47C A59G A121G here?
**A.** 0

**Q.** With U47C A65G C103U U115C A117U as the variant, how does the self-cleavage read?
**A.** 0.11

**Q.** With U47C A65U U134C as the variant, how does the self-cleavage read?
**A.** 0.36

**Q.** For U47C A67G U73A U109C A121U A141G, which self-cleavage is on record?
**A.** 0.41

**Q.** For U47C A69G G106U, which self-cleavage is on record?
**A.** 0.6

**Q.** With U47C A69G G137U as the variant, how does the self-cleavage read?
**A.** 0.38

**Q.** Which self-cleavage does the source give for U47C A69G U73A here?
**A.** 0.47

**Q.** For U47C A69G U115A, which self-cleavage is on record?
**A.** 0.66

**Q.** For U47C A69G U130C, which self-cleavage is on record?
**A.** 0.97

**Q.** For U47C A77G U96C G144A, which self-cleavage is on record?
**A.** 0

**Q.** For U47C A78G U81A, which self-cleavage is on record?
**A.** 0.56

**Q.** For U47C A78G U87A, which self-cleavage is on record?
**A.** 0.07

**Q.** Which self-cleavage does the source give for U47C A92C U134C here?
**A.** 0

**Q.** For U47C A94G U96A, which self-cleavage is on record?
**A.** 0.3

**Q.** With U47C A94U U132A A136G as the variant, how does the self-cleavage read?
**A.** 0.5

**Q.** Which self-cleavage does the source give for U47C A117C U143C here?
**A.** 1.44

**Q.** Which self-cleavage does the source give for U47C A117G U134A U143C here?
**A.** 1.71

**Q.** Which self-cleavage does the source give for U47C A124G A138G here?
**A.** 2.03

**Q.** For U47C A124U U132C, which self-cleavage is on record?
**A.** 1.61
